From patent US10501444B2, “Inhibitors of influenza virus replication, application methods and uses thereof” (SUNSHINE LAKE PHARMA CO., LTD., priority 2016, dated 2019)

Columns and labels:
[1] = human, 1 μM, pH 7.4
in vitro = conditions: human, microsomes, pH 7.4
in vivo = conditions: SD, rat, iv, 1 mg/kg
[2] = Pharmacokinetic evaluation after intravenous or oral administration to SD rat; conditions: in vivo, po, 5 mg/kg

| Structure (SMILES) | ER (extraction ratio) [1] | CLhep predicted at 1 μM (in vitro) [mL/min/kg] | half-life at 1 μM (in vitro) [min] | AUC(0-inf) (in vivo) [ng·h/mL] | AUC(0-t) (in vivo) [ng·h/mL] | Cmax (in vivo) [ng/mL] | Tmax (in vivo) [min] | Vd (in vivo) [L/kg] | clearance (in vivo) [mL/min/kg] | half-life (in vivo) [min] | AUC(0-inf) [2] [ng·h/mL] | AUC(0-t) [2] [ng·h/mL] | half-life [2] [min] |
| --- | --- | --- | --- | --- | --- | --- | --- | --- | --- | --- | --- | --- | --- |
| O=C(O)C1C2CCC(CC2)C1Nc1nc(-c2c[nH]c3c(F)cc(F)cc23)nc2c1ccn2CCF (racemic) [Example 34, (+/−)-trans-3-((2-(5,7-difluoro-1H-indol-3-yl)-7-(2-fluoroethyl)-7H-pyrrolo[2,3-d]pyrimidin-4-yl)amino)bicyclo[2.2.2]octane-2-carboxylic Acid] | 0.2 | 3.2 | 465 | – | – | – | – | – | – | – | – | – | – |
| O=C(O)C1C2CCC(CC2)C1Nc1cc(-c2ccccc2)nc(-c2c[nH]c3c(F)cc(F)cc23)n1 (racemic) [Example 1, (+/−)-trans-3-((2-(5,7-difluoro-1H-indol-3-yl)-6-phenylpyrimidin-4-yl)amino)bicyclo[2.2.2]octane-2-carboxylic Acid] | 0.1 | 2 | 767 | 2950 | 2890 | 4650 | 4.98 | 0.378 | 5.74 | 88.8 | – | – | – |
| O=C(O)C1C2CCC(CC2)C1Nc1nc(-c2c[nH]c3ncc(F)cc23)ncc1F (racemic) [VX-787 (racemization)] | 0.3 | 5.8 | 214 | – | – | – | – | – | – | – | 3530 | 3510 | 248 |
| CC(C)n1ccc2c(NC3C4CCC(CC4)C3C(=O)O)nc(-c3c[nH]c4c(F)cc(F)cc34)nc21 (racemic) [Example 35, (+/−)-trans-3-((2-(5,7-difluoro-1H-indol-3-yl)-7-isopropyl-7H-pyrrolo[2,3-d]pyrimidin-4-yl)amino)bicyclo[2.2.2]octane-2-carboxylic Acid] | 0.2 | 3.6 | 400 | – | – | – | – | – | – | – | – | – | – |
